# Some of the results follow.
# B1: PX9896A-bth-573-26-573 (Bacteroides thetaiotaomicron) (protein)
# chain: ETNNLKTKEDMYKYFGTSKSMLTHVYSYMPQGYQLFATSGGIFTEDRYSMRDCASDDGEFGAYADNIQNTNNGNWSPIKTYDDSWTLYRGIRAANSFIAEIAQVDFTRYEHDGQYTNWMKQLKYFPYEARVLRAHYFFELARRYGDIAMPLEVLTEEEANTIGKTPFSEVISFIVSECDDAANNLPDSYVNEPGAEIGRVTKGFAMAVKSKALLYAASKLHNPSMDTELWKKSAKAAIDIINTGLYSLDPQESANNLDSKEVVLMRINGDDSDFEMFNLPLRMTAGTRTSSLIPYSNYPSQNLVDAFETVNGYKVTLENTGWVCEDPAFDPQSPYENRDKRFYRAILANGMSFKDYTIETFKGGADDGIVSQGGSPTGYFLRKYIQEATSFEPGKEAVSKHHWVIYRYAETLLTYAESMVNAFNDVNYTDETYKYSALWAINEVRKNADMPLIPSMGKDEFMERLYNEWRVEFAFEDHRFWDVRRWKIADTTQRELYGVKIEKQADGTFNFYKNLYETRNWRDCMYLYPIPQSELYKNTNLNPQNTGW
# Legend:
# Test in all cases: glycan array binding signal (z-score within array); higher = stronger binding
# Details in all cases: glycan notation: IUPAC condensed, linker removed
# [1] = target: Neu5Ac(a2-3)Gal(b1-3)[Fuc(a1-4)]GlcNAc
# How it was run: (§1)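 Glycan array binding is given as a within-array Z-score, which can be read as non-binding when negative. The arrays, 3228 of them, came from the Consortium for Functional Glycomics database and were retained only where the protein sequence was available. Z-scores were averaged across arrays of the same protein sequence at different concentrations or buffers and across linkers.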
# [2] = target: Neu5Ac(a2-3)Gal(b1-3)[Fuc(a1-4)]GlcNAc(b1-3)Gal(b1-3)[Fuc(a1-4)]GlcNAc
# How it was run: as §1
# [3] = target: Neu5Ac(a2-3)Gal(b1-3)[Fuc(a1-4)]GlcNAc(b1-3)Gal(b1-4)[Fuc(a1-3)]GlcNAc
# How it was run: as §1
# [4] = target: Neu5Ac(a2-3)Gal(b1-3)[GlcNAc(b1-6)]GalNAc
# How it was run: as §1
# [5] = target: Neu5Ac(a2-3)Gal(b1-3)[Neu5Ac(a2-6)]GalNAc
# How it was run: as §1
# [6] = target: Neu5Ac(a2-3)Gal(b1-3)[Neu5Ac(a2-6)]GlcNAc(b1-3)[Fuc(a1-3)[Gal(b1-4)]GlcNAc(b1-6)]Gal(b1-4)Glc
# How it was run: as §1
# [7] = target: Neu5Ac(a2-3)Gal(b1-3)]Neu5Ac(a2-3)Gal(b1-4)]GlcNAc
# How it was run: as §1
# [8] = target: Neu5Ac(a2-3)Gal(b1-4)Glc
# How it was run: as §1
# [9] = target: Neu5Ac(a2-3)Gal(b1-4)GlcNAc
# How it was run: as §1
# [10] = target: Neu5Ac(a2-3)Gal(b1-4)GlcNAc(b1-2)Man
# How it was run: as §1
# [11] = target: Neu5Ac(a2-3)Gal(b1-4)GlcNAc(b1-2)Man(a1-3)[GlcNAc(b1-4)][Neu5Ac(a2-3)Gal(b1-4)GlcNAc(b1-2)Man(a1-6)]Man(b1-4)GlcNAc(b1-4)GlcNAc
# How it was run: as §1
# [12] = target: Neu5Ac(a2-3)Gal(b1-4)GlcNAc(b1-2)Man(a1-3)[Neu5Ac(a2-3)Gal(b1-4)GlcNAc(b1-2)Man(a1-6)]Man(b1-4)GlcNAc(b1-4)GlcNAc
# How it was run: as §1
# [13] = target: Neu5Ac(a2-3)Gal(b1-4)GlcNAc(b1-2)Man(a1-3)[Neu5Ac(a2-3)Gal(b1-4)GlcNAc(b1-2)Man(a1-6)]Man(b1-4)GlcNAc(b1-4)[Fuc(a1-6)]GlcNAc
# How it was run: as §1
# [14] = target: Neu5Ac(a2-3)Gal(b1-4)GlcNAc(b1-2)Man(a1-3)[Neu5Ac(a2-6)Gal(b1-4)GlcNAc(b1-2)Man(a1-6)]Man(b1-4)GlcNAc(b1-4)GlcNAc
# How it was run: as §1
# [15] = target: Neu5Ac(a2-3)Gal(b1-4)GlcNAc(b1-2)[Neu5Ac(a2-3)Gal(b1-4)GlcNAc(b1-4)]Man(a1-3)[GlcNAc(b1-4)][Neu5Ac(a2-3)Gal(b1-4)GlcNAc(b1-2)[Neu5Ac(a2-3)Gal(b1-4)GlcNAc(b1-6)]Man(a1-6)]Man(b1-4)GlcNAc(b1-4)GlcNAc
# How it was run: as §1
# [16] = target: Neu5Ac(a2-3)Gal(b1-4)GlcNAc(b1-2)[Neu5Ac(a2-3)Gal(b1-4)GlcNAc(b1-4)]Man(a1-3)[GlcNAc(b1-4)][Neu5Ac(a2-3)Gal(b1-4)GlcNAc(b1-4)Man(a1-6)]Man(b1-4)GlcNAc(b1-4)GlcNAc
# How it was run: as §1
# [17] = target: Neu5Ac(a2-3)Gal(b1-4)GlcNAc(b1-2)[Neu5Ac(a2-3)Gal(b1-4)GlcNAc(b1-6)]Man(a1-6)[Neu5Ac(a2-3)Gal(b1-4)GlcNAc(b1-2)Man(a1-3)]Man(b1-4)GlcNAc(b1-4)GlcNAc
# How it was run: as §1
# [18] = target: Neu5Ac(a2-3)Gal(b1-4)GlcNAc(b1-2)[Neu5Ac(a2-3)Gal(b1-4)GlcNAc(b1-6)]Man(a1-6)[Neu5Ac(a2-3)Gal(b1-4)GlcNAc(b1-2)Man(a1-3)][GlcNAc(b1-4)]Man(b1-4)GlcNAc(b1-4)GlcNAc
# How it was run: as §1
# [19] = target: Neu5Ac(a2-3)Gal(b1-4)GlcNAc(b1-3)Gal
# How it was run: as §1
# [20] = target: Neu5Ac(a2-3)Gal(b1-4)GlcNAc(b1-3)Gal(b1-3)GlcNAc
# How it was run: as §1
# [21] = target: Neu5Ac(a2-3)Gal(b1-4)GlcNAc(b1-3)Gal(b1-4)GlcNAc
# How it was run: as §1
# [22] = target: Neu5Ac(a2-3)Gal(b1-4)GlcNAc(b1-3)Gal(b1-4)GlcNAc(b1-2)Man(a1-3)[Neu5Ac(a2-3)Gal(b1-4)GlcNAc(b1-3)Gal(b1-4)GlcNAc(b1-2)Man(a1-6)]Man(b1-4)GlcNAc(b1-4)GlcNAc
# How it was run: as §1
# [23] = target: Neu5Ac(a2-3)Gal(b1-4)GlcNAc(b1-3)Gal(b1-4)GlcNAc(b1-3)Gal(b1-4)GlcNAc
# How it was run: as §1
# [24] = target: Neu5Ac(a2-3)Gal(b1-4)GlcNAc(b1-3)Gal(b1-4)GlcNAc(b1-3)Gal(b1-4)GlcNAc(b1-2)Man(a1-3)[Neu5Ac(a2-3)Gal(b1-4)GlcNAc(b1-3)Gal(b1-4)GlcNAc(b1-3)Gal(b1-4)GlcNAc(b1-2)Man(a1-6)]GalNAc
# How it was run: as §1
# [25] = target: Neu5Ac(a2-3)Gal(b1-4)GlcNAc(b1-3)Gal(b1-4)GlcNAc(b1-3)GalNAc
# How it was run: as §1
# [26] = target: Neu5Ac(a2-3)Gal(b1-4)GlcNAc(b1-3)Gal(b1-4)GlcNAc(b1-3)[Neu5Ac(a2-3)Gal(b1-4)GlcNAc(b1-3)Gal(b1-4)GlcNAc(b1-6)]GalNAc
# How it was run: as §1
# [27] = target: Neu5Ac(a2-3)Gal(b1-4)GlcNAc(b1-3)Gal(b1-4)GlcNAc(b1-6)[Gal(b1-3)]GalNAc
# How it was run: as §1
# [28] = target: Neu5Ac(a2-3)Gal(b1-4)GlcNAc(b1-3)Gal(b1-4)[Fuc(a1-3)]GlcNAc
# How it was run: as §1
# [29] = target: Neu5Ac(a2-3)Gal(b1-4)GlcNAc(b1-3)GalNAc
# How it was run: as §1
# [30] = target: Neu5Ac(a2-3)Gal(b1-4)GlcNAc(b1-3)[Neu5Ac(a2-3)Gal(b1-4)GlcNAc(b1-6)]GalNAc
# How it was run: as §1
binder,measurement,setting,value
B1,glycan array binding signal (z-score),[1],-0.34
same,glycan array binding signal (z-score),[2],-0.865
same,glycan array binding signal (z-score),[3],0.622
same,glycan array binding signal (z-score),[4],-0.325
same,glycan array binding signal (z-score),[5],-0.015
same,glycan array binding signal (z-score),[6],-0.084
same,glycan array binding signal (z-score),[7],0.207
same,glycan array binding signal (z-score),[8],0.029
same,glycan array binding signal (z-score),[9],-0.87
same,glycan array binding signal (z-score),[10],-0.053
same,glycan array binding signal (z-score),[11],-0.598
same,glycan array binding signal (z-score),[12],-0.076
same,glycan array binding signal (z-score),[13],-0.024
same,glycan array binding signal (z-score),[14],0.15
same,glycan array binding signal (z-score),[15],-0.635
same,glycan array binding signal (z-score),[16],0.488
same,glycan array binding signal (z-score),[17],1.51
same,glycan array binding signal (z-score),[18],-0.624
same,glycan array binding signal (z-score),[19],-0.909
same,glycan array binding signal (z-score),[20],-0.723
same,glycan array binding signal (z-score),[21],-0.375
same,glycan array binding signal (z-score),[22],-0.638
same,glycan array binding signal (z-score),[23],0.33
same,glycan array binding signal (z-score),[24],1.93
same,glycan array binding signal (z-score),[25],-0.392
same,glycan array binding signal (z-score),[26],-0.459
same,glycan array binding signal (z-score),[27],-0.146
same,glycan array binding signal (z-score),[28],-0.535
same,glycan array binding signal (z-score),[29],-0.784
same,glycan array binding signal (z-score),[30],-0.456
